Changes are numbered by the printed parent chain. Each block holds one binder with its values, some of them ahead of it.
Legend:
[1] = biological target: T1, L1 cell adhesion molecule (L1CAM) on the surface of HeLa cells (human, UniProt P32004 20-1257); test: cell-based or functional assay
[2] = biological target: T1, L1 cell adhesion molecule (L1CAM) on …; test: flow cytometry on HeLa cells, KD from non-linear regression of MFI
Method: The anti-L1CAM ADC is diluted with complete culture medium in a 4-fold serial dilution, with 10 concentration gradient points.
HeLa cells are cultured in DMEM complete medium (Corning, 10-013-CVR) containing 10% FBS (Gibco, 10099-141) and 100 U/mL penicillin-streptomycin mixture (Thermo Fisher, 15140122). When the cell coverage in the culture container reaches 80-90%, TrypLE (Thermofisher, 12604-013) is used to digest the HeLa cells from the culture container, and they are seeded in a 96-deepwell plate at a density of 3.7×10⁴ cells/ml, with 50,000 cells (1350 μL complete medium) per well. Then, 150 μL of the ADC dilution is added to each well, mixed gently, and the 96-well plate is incubated at 4° C. for 1 hour. Then the plate is centrifuged at 1,400 rpm for 4 minutes, the supernatant is removed, and 150 μL of PBS solution (Corning, 21-040-CVC) containing 2% FBS is added to each well, centrifuged at 1,400 rpm for 4 minutes, then washed twice. Then, 50 μL of Alexa Fluor 647-labeled goat anti-human fluorescent secondary antibody (JacksonImmuno, 109-605-088) diluted at 1:800 is added to each well, and the 96-well plate is incubated at 4° C. for 0.5 hours. Cells are washed twice with PBS solution containing 2% FBS, and then resuspended in 120 μL of PBS, and the cell surface fluorescence signal is detected by using a flow cytometer (BD FACS Celesta), obtaining the median fluorescence intensity (MFI). A dose-response curve is generated, and the equilibrium dissociation constant (KD) is calculated using non-linear regression with GraphPad software.

T1 sequence (P32004 20-1257): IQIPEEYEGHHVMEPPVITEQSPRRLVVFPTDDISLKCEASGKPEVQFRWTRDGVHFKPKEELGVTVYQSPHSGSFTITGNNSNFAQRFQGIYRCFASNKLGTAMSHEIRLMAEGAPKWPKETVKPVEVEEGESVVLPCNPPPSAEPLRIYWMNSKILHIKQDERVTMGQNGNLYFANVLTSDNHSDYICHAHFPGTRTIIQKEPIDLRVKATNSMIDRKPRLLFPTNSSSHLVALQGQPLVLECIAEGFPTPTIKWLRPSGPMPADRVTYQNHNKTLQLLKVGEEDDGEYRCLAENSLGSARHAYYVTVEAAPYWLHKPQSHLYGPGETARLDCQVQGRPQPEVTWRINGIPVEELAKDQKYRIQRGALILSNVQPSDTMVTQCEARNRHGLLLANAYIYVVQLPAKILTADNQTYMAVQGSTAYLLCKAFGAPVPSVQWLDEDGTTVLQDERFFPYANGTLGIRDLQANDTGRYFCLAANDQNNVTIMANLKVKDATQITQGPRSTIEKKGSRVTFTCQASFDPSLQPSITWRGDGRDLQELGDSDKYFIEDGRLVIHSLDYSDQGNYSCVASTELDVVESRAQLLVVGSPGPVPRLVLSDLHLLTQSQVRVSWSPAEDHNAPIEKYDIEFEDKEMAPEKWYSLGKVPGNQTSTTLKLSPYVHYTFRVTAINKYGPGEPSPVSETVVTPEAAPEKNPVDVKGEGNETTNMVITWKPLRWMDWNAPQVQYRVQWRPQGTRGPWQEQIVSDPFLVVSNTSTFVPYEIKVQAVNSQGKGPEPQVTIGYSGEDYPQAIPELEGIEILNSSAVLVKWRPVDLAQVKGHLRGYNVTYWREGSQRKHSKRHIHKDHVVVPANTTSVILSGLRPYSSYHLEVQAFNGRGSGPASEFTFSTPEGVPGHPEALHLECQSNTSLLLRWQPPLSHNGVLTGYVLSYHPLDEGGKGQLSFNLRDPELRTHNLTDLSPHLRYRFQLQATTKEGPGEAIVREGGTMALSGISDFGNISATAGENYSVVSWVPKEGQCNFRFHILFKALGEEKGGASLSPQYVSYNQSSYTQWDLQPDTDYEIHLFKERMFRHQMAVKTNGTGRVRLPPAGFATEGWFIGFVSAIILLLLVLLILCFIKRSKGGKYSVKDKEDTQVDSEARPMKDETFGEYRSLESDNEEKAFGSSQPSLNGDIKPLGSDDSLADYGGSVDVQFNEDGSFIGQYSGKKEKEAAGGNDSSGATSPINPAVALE

B2: hz46F1D5H4L3-MMAE (other)
heavy: QVQLVQSGAEVKKPGSSVKVSCKASGYTFTRYWIQWVRQAPGQGLEWMGYINPSTGYTDYNQKFQGRVTITADKSTSTAYMELSSLRSEDTAVYYCARRHLGLPLFDYWGQGTTVTVSS[human IgG1 constant region left out here]
light: DIQMTQSPSSVSASVGDRVTITCRASQDVGTAVAWYQQKPGKAPKLLIYWASSLHSGVPSRFSGSGSGTDFTLTISSLQPEDFATYFCQQYSNYPLTFGGGTKVEIKRTVAAPSVFIFPPSDEQLKSGTASVVCLLNNFYPREAKVQWKVDNALQSGNSQESVTEQDSKDSTYSLSSTLTLSKADYEKHKVYACEVTHQGLSSPVTKSFNRGEC
modifications: mc-vc-PABC-MMAE on free thiol groups of the TCEP-reduced antibody; positions not given
notes: also called anti-L1CAM ADC; humanized anti-L1CAM antibody-drug conjugate
Cell killing activity of anti-L1CAM ADC (IC50 nM), HeLa, CellTiter-Glo [1]: 0.395 nM
Kd [2]: 0.097 nM

B3: hz49E10H1H5L6-MMAE (other)
heavy: DVQLQESGPGLVKPSQTLSLTCTVSGGSISSDYAWNWIRQPPGKGLEWMGYITYSGTTTYNPSLKSRITISRDTSKNQFSLKLSSVTAADTAVYYCARDHYGNYAYFDYWGQGTTVTVSS[human IgG1 constant region left out here]
light: DIQMTQSPSSLSASVGDRVTITCRASSSVSFMHWYQQKPGKAPKPWIYASSNLVSGVPSRFSGSGSGTDFTLTISSLQPEDFATYYCQQWSSNPSTFGGGTKVEIKRTVAAPSVFIFPPSDEQLKSGTASVVCLLNNFYPREAKVQWKVDNALQSGNSQESVTEQDSKDSTYSLSSTLTLSKADYEKHKVYACEVTHQGLSSPVTKSFNRGEC
modifications: mc-vc-PABC-MMAE on free thiol groups of the TCEP-reduced antibody; positions not given
notes: as for B2
Cell killing activity of anti-L1CAM ADC (IC50 nM), HeLa, CellTiter-Glo [1]: 0.061 nM
Kd [2]: 0.11 nM

B4: hz103E9B3H5L5-MMAE (other)
heavy: EVQLVQSGAEVKKPGASVKVSCKASGYTFTSYTMHWVRQAPGQGLEWMGDINPNYGGTSYNEKFKDRVTMTTDTSTSTAYMELRSLRSDDTAVYYCAREGATGTWYFDVWGQGTTVTVSS[human IgG1 constant region left out here]
light: B3 light with R24S, H33F, W46L, A49L, S50T, V54A, S91R, S95P
modifications: mc-vc-PABC-MMAE on free thiol groups of the TCEP-reduced antibody; positions not given
notes: as for B2
Cell killing activity of anti-L1CAM ADC (IC50 nM), HeLa, CellTiter-Glo [1]: 0.32 nM
Kd [2]: 0.66 nM

B6: hz49E10H1H5L7-MMAE (other)
heavy: B3 heavy
light: B3 light with D1Q, F70Y
modifications: mc-vc-PABC-MMAE on free thiol groups of the TCEP-reduced antibody; positions not given
notes: as for B2
Cell killing activity of anti-L1CAM ADC (IC50 nM), HeLa, CellTiter-Glo [1]: 0.092 nM
Kd [2]: 0.084 nM

Second part, led by results:

Kd [2]: 0.23 nM
B1: hz26A12C1H4L3-MMAE (other)
heavy: B2 heavy with R31N, M48I, G56Y, T58S, I70L, H100Q, L101F
light: B2 light with V11L, A43V, S53T, F83V
modifications: mc-vc-PABC-MMAE on free thiol groups of the TCEP-reduced antibody; positions not given
notes: as for B2
Cell killing activity of anti-L1CAM ADC (IC50 nM), HeLa, CellTiter-Glo [1]: 0.635 nM

Kd [2]: 0.6 nM
B5: hz103E9B3H6L5-MMAE (other)
heavy: B4 heavy with V68A
light: B3 light with R24S, H33F, W46L, A49L, S50T, V54A, S91R, S95P
modifications: mc-vc-PABC-MMAE on free thiol groups of the TCEP-reduced antibody; positions not given
notes: as for B2
Cell killing activity of anti-L1CAM ADC (IC50 nM), HeLa, CellTiter-Glo [1]: 0.155 nM
